For 51 cell lines, AUC and IC50 results are on record in the supplement of paper PMC4967469.

A lower IC50 marks a more sensitive line; where the fit passes the top or lowest dose, that dose stands as a limit. For AUC the same curve is integrated over the 256-fold range of doses and scaled to a fraction; the more sensitive the line, the further below 1. An entry number marks a drug with two screens in the source, which often give different values. Some results are limits rather than exact numbers.

The IC50 is the concentration at which inhibition is half-maximal.

Compound in the experiment: CS(=O)(=O)N1CCN(Cc2cc3nc(-c4cccc5[nH]ncc45)nc(N4CCOCC4)c3s2)CC1 [GDC0941]
Kind of experiment: Viability of human cancer cell lines after 72 h of drug (GDSC screen). Conditions: screen: GDSC drug entry 1058. Here is the method:
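Human cancer cell lines in 384-well plates, medium with 10% serum, drug for 72 h over a 256-fold dose range (nine 2-fold or five 4-fold steps up to the top dose). Adherent lines were fixed and stained with the nucleic acid dye Syto60, suspension lines read with resazurin; signal relative to control wells, capped at 0 and 100%. One two-parameter sigmoid per drug and line, fitted in a mixed model over all curves with the slope shared within a line.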
As to “NOS-1 (osteosarcoma, adherent, top dose 4 µM)”, the AUC was determined as 0.511 and the IC50 was 269 nM.
With “NU-DUL-1 (B-cell lymphoma, suspension, top dose 4 µM)”, the AUC was determined as 0.327 and the half-inhibitory concentration (IC50) worked out at 91.8 nM.
On the same counts, the results for “NUGC-3 (stomach, adherent, top dose 2 µM)” are 0.906 and > 2000 nM.
For the cell line “NUGC-4 (stomach, adherent, top dose 4 µM)”, the AUC came to 0.971 and the IC50 was > 4000 nM.
On the same counts, the results for “NY (osteosarcoma, adherent, top dose 4 µM)” are 0.944 and > 4000 nM.
“OACM5-1 (oesophagus, semi-adherent, top dose 4 µM)”: the AUC is 0.961 and the IC50 is > 4000 nM.
Regarding “OACp4C (oesophagus, adherent, top dose 4 µM)”, the AUC is 0.696 and the concentration for half-maximal inhibition (IC50) came out at 1000 nM.
Taken in the same sequence, the figures for OAW-28 (ovary, adherent, top dose 2 µM) were 0.941 and > 2000 nM.
On the same counts, the results for OAW-42 (ovary, adherent, top dose 4 µM) are 0.672 and 790 nM.
Taken in the same sequence, the figures for OC-314 (ovary, adherent, top dose 4 µM) were 0.768 and 1300 nM.
As for “OCI-AML2 (acute myeloid leukaemia, suspension, top dose 4 µM)”, the AUC amounted to 0.995 and the concentration for half-maximal inhibition (IC50) is > 4000 nM.
In the case of “OCI-AML3 (acute myeloid leukaemia, suspension, top dose 4 µM)”, the AUC is 0.891 and the half-maximal inhibitory concentration (IC50) stood at 3500 nM.
As to “OCI-AML5 (acute myeloid leukaemia, suspension, top dose 4 µM)”, the AUC amounted to 0.757 and the half-maximal inhibitory concentration (IC50) worked out at 1270 nM.
On to “OCI-LY7 (B-cell lymphoma, suspension, top dose 4 µM)”, for which the AUC turned out to be 0.231 and the IC50 is 55.6 nM.
Taken in the same sequence, the figures for “OCI-LY-19 (B-cell lymphoma, suspension, top dose 4 µM)” were 0.823 and 2110 nM.
Taken in the same sequence, the figures for “OCI-M1 (acute myeloid leukaemia, suspension, top dose 4 µM)” were 0.99 and > 4000 nM.
Take “OCUB-M (breast, adherent, top dose 4 µM)”: the AUC stood at 0.945 and the IC50 was > 4000 nM.
On to “OCUM-1 (stomach, adherent, top dose 4 µM)”, for which the AUC amounted to 0.842 and the IC50 is 3260 nM.
On to “OE19 (oesophagus, adherent, top dose 4 µM)”, for which the AUC was found to be 0.917 and the half-inhibitory concentration (IC50) was > 4000 nM.
On the same counts, the results for “OE21 (oesophagus, adherent, top dose 4 µM)” are 0.685 and 1010 nM.
Taken in the same sequence, the figures for “OE33 (oesophagus, adherent, top dose 4 µM)” were 0.829 and 3160 nM.
On the same counts, the results for OMC-1 (cervix, adherent, top dose 4 µM) are 0.694 and 899 nM.
In the case of “ONS-76 (medulloblastoma, adherent, top dose 4 µM)”, the AUC came to 0.976 and the IC50 is > 4000 nM.
Taken in the same sequence, the figures for “OS-RC-2 (kidney, adherent, top dose 4 µM)” were 0.959 and > 4000 nM.
On the same counts, the results for “OSC-19 (head and neck, adherent, top dose 4 µM)” are 0.719 and 1070 nM.
With “OSC-20 (head and neck, adherent, top dose 2 µM)”, the AUC was determined as 0.73 and the IC50 came out at 649 nM.
On the same counts, the results for OV-7 (ovary, adherent, top dose 4 µM) are 0.636 and 722 nM.
Taken in the same sequence, the figures for OV-17R (ovary, adherent, top dose 4 µM) were 0.757 and 1900 nM.
On the same counts, the results for OV-56 (ovary, adherent, top dose 4 µM) are 0.909 and > 4000 nM.
OV-90 (ovary, adherent, top dose 4 µM): the AUC stood at 0.817 and the IC50 was found to be 3100 nM.
Taken in the same sequence, the figures for “OVCA420 (ovary, adherent, top dose 4 µM)” were 0.703 and 1140 nM.
Consider “OVCA433 (ovary, adherent, top dose 4 µM)”, for which the AUC turned out to be 0.699 and the half-inhibitory concentration (IC50) was found to be 974 nM.
On to “OVCAR-3 (ovary, adherent, top dose 4 µM)”, for which the AUC came to 0.945 and the 50% inhibitory concentration (IC50) is > 4000 nM.
As to “OVCAR-5 (ovary, adherent, top dose 4 µM)”, the AUC amounted to 0.681 and the IC50 came out at 899 nM.
On the same counts, the results for “OVCAR-8 (ovary, adherent, top dose 4 µM)” are 0.868 and 3000 nM.
Taken in the same sequence, the figures for OVISE (ovary, adherent, top dose 4 µM) were 0.461 and 190 nM.
In the case of OVK-18 (ovary, adherent, top dose 4 µM), the AUC worked out at 0.608 and the IC50 stood at 511 nM.
Taken in the same sequence, the figures for OVKATE (ovary, adherent, top dose 4 µM) were 0.869 and > 4000 nM.
Taken in the same sequence, the figures for OVMIU (ovary, adherent, top dose 4 µM) were 0.821 and 3100 nM.
Turning to OVTOKO (ovary, adherent, top dose 4 µM), the AUC is 0.512 and the IC50 was 272 nM.
On the same counts, the results for “P30-OHK (lymphoblastic leukaemia, suspension, top dose 4 µM)” are 0.401 and 141 nM.
Taken in the same sequence, the figures for “P31-FUJ (acute myeloid leukaemia, suspension, top dose 4 µM)” were 0.969 and > 4000 nM.
Regarding “P32-ISH (Burkitt lymphoma, suspension, top dose 4 µM)”, the AUC amounted to 0.731 and the concentration for half-maximal inhibition (IC50) was found to be 928 nM.
Taken in the same sequence, the figures for PA-1 (ovary, adherent, top dose 4 µM) were 0.893 and 2930 nM.
On the same counts, the results for “PA-TU-8902 (pancreas, adherent, top dose 4 µM)” are 0.874 and > 4000 nM.
On to “PANC-02-03 (pancreas, adherent, top dose 4 µM)”, for which the AUC was determined as 0.597 and the IC50 is 486 nM.
Taken in the same sequence, the figures for “PANC-03-27 (pancreas, adherent, top dose 4 µM)” were 0.737 and 1120 nM.
Consider “PANC-04-03 (pancreas, adherent, top dose 4 µM)”, for which the AUC worked out at 0.88 and the IC50 is > 4000 nM.
Taken in the same sequence, the figures for “PANC-10-05 (pancreas, adherent, top dose 2 µM)” were 0.921 and > 2000 nM.
Taken in the same sequence, the figures for “PC-3 [JPC-3] (lung adenocarcinoma, adherent, top dose 4 µM)” were 0.98 and > 4000 nM.
As for “PC-14 (lung adenocarcinoma, adherent, top dose 4 µM)”, the AUC was 0.87 and the IC50 was 3050 nM.
